Measurements: PubChem BioAssay AID624170 (National Center for Advancing Translational Sciences (NCATS), 2012)
Out of some 410,000 compounds screened, about 850 (0.21%) were called active. The inconclusive results got no clear call from the source; some entries with a clear call stand among them for comparison. Calls come from the whole dose curve; as a rule, active = well fitted inhibition curve with a large enough effect; inconclusive = small, poorly fitted or top-dose-only effect, or another doubt; inactive = no such curve, though single readings can be large or run the other way. Where the call is inconclusive, the potency comes from a doubtful curve fit.

Molecular target: Glutaminase kidney isoform, mitochondrial (Homo sapiens) (UniProt O94925)
Experiment: qHTS for Inhibitors of Glutaminase (GLS)
Conditions: GLS enzymatic activity, qHTS titration; series mostly up to 45.5 µM; activity change, negative = inhibition: at the top concentration
In short: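 Two-point fluorescence kinetic (t0, 30 min RT) for hKGA; glutamate detected via glutamate oxidase–HRP–Amplex Red. Substrate: 1 mM L-glutamine solution; buffer 45 mM KH2PO4, pH 8.2.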
% is set by controls: 0 for no effect and ±100 for the full control effect; potency is the fitted concentration of half-maximal effect; tags give direction and shape of the fitted curve.

Chain of UniProt O94925 (O94925 whole entry, looked up, canonical isoform): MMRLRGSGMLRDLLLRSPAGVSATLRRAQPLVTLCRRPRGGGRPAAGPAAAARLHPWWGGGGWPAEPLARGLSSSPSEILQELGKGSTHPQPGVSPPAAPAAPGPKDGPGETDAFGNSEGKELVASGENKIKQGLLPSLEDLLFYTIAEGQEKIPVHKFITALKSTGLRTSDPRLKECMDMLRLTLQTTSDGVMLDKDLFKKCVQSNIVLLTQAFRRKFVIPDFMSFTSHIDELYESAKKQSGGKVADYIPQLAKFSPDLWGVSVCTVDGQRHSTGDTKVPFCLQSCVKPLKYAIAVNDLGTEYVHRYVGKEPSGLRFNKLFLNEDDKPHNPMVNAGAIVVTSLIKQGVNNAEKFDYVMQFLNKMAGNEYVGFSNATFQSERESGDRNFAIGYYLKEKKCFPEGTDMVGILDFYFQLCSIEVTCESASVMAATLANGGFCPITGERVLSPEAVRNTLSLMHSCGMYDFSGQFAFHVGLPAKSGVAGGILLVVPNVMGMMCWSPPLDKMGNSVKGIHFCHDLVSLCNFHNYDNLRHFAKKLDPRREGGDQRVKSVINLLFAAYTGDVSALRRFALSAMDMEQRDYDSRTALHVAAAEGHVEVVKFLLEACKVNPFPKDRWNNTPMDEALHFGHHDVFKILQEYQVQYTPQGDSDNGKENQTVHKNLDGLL

Potency, inconclusive:
CN(C)c1ccc(/C=N/n2c(-c3ccccc3Br)n[nH]c2=S)cc1 11.2 µM [inhibitor, partial curve]
CC(C)C[C@H](NC(=O)/C=C/[C@H]1O[C@@H](n2ccc(=O)[nH]c2=O)[C@H](O)[C@@H]1O)C(=O)O 3.55 µM [inhibitor, single point]
CCN1CCc2c(sc(-n3cccc3)c2C(C)NC(=O)Nc2ccccc2C)C1 (stereo not drawn) 28.2 µM [inhibitor, single point]
C(=N\Nc1ccccn1)/c1ccc(N2CCOCC2)cc1 15.8 µM [inhibitor, single point]
O=C(OCC(=O)N1CCc2ccccc21)c1ccncc1 6.31 µM [inhibitor, single point]
Cc1ccc(-c2cc(C(F)(F)F)n3nc(C(=O)Nc4ccon4)cc3n2)cc1C 3.16 µM [inhibitor, single point]
CCCCNc1nc2c(c(=O)n(Cc3ccccc3)c(=O)n2C)n1C 35.5 µM [inhibitor, single point]
CC(C)c1ccc2[nH]c3nc(SCC(=O)NC4CC4)nnc3c2c1 6.31 µM [inhibitor, single point]
CCOC(=O)c1c(C)[nH]c(C)c1S(=O)(=O)N1CCN(c2ccc(Cl)cc2)CC1 35.5 µM [inhibitor, single point]
CC1CC(C)(C)NC(=S)N1CCC(=O)Nc1ccc2c(c1)OCCO2 (stereo not drawn) 25.1 µM [inhibitor, partial curve, poor fit]
COc1ccc(NC(=S)N/N=C/c2cccn2Cc2ccc(F)cc2Cl)cc1 31.6 µM [inhibitor, single point]
Fc1ccc(N=c2ssnc2Cl)c(F)c1 35.5 µM [inhibitor, single point]
CC/C(=N\NC(=O)c1cc(C)nc2ccccc12)c1ccc(C)s1 12.6 µM [inhibitor, partial curve]
Cc1cc(C)n(C(CC(=O)N2CCc3ccccc3C2)C(=O)O)n1 (stereo not drawn) 35.5 µM [inhibitor, partial curve, poor fit]
O=[N+]([O-])c1ccc(O)c(C=Nc2ccc3c(c2)OCO3)c1 15.8 µM [inhibitor, single point]
O=C(NCc1ccco1)C1CCCN1C(=O)Nc1ccc(Cl)cc1 (stereo not drawn) 35.5 µM [inhibitor, single point]
O=C(O)c1cc(-c2ccco2)nc2ccccc12 22.4 µM [inhibitor, single point]
CCn1c(=O)n(CC)c2cc(N3CCCC3)c(NC(=O)c3cccc(Cl)c3)cc21 11.2 µM [inhibitor, partial curve, poor fit]
CC(=O)c1c(C)[nH]c(=S)c(C#N)c1-c1ccc(F)cc1 14.1 µM [inhibitor, single point]
CCc1ccccc1NC(=O)Cc1ccc(-n2cccc2)cc1 35.5 µM [inhibitor, single point]
O=c1[nH]c(C2CCN(S(=O)(=O)c3cccc([N+](=O)[O-])c3)CC2)nc2c1nnn2Cc1ccccc1 35.5 µM [inhibitor, single point]
COc1cc(/C=C/CN2CCN(Cc3ccc(C)o3)C(CCO)C2)ccc1O (stereo not drawn) 11.2 µM [inhibitor, partial curve]
CCOc1cc(/C=N\NC(=O)CC(=O)NCCc2ccccc2)ccc1O 8.91 µM [inhibitor, partial curve]
NNC(=O)c1sc2cc(C(F)(F)F)cnc2c1-c1ccccn1 35.5 µM [inhibitor, single point]
CSCCC1NC2(C(=O)Nc3ccc(Cl)cc32)[C@@H]2C(=O)N(C3CCCC3)C(=O)[C@H]12 (stereo partly drawn) 35.5 µM [inhibitor, single point]
COc1cc(/C=N\NC(=O)c2c(C)nc3cc(C)ccn23)ccc1O 35.5 µM [inhibitor, single point]
c1ccc(N/N=C(\Cc2ncc[nH]2)c2ccccc2)cc1 14.1 µM [inhibitor, single point]
COC(=O)[C@]1(CC(C)C)N[C@H](c2ccc(-c3ccc(F)cc3)c(OC)c2)[C@@H]2C(=O)N(C)C(=O)[C@@H]21 35.5 µM [inhibitor, partial curve, poor fit]
Cc1ccc(CN2CCN(/N=C/c3ccc(O)c(O)c3)CC2)cc1 35.5 µM [inhibitor, single point]
NC(=S)N/N=C/c1coc2cc(Br)ccc2c1=O 3.98 µM [inhibitor, partial curve]
COc1ccc(NC(=O)CSCc2ccc([N+](=O)[O-])cc2)cc1OC 35.5 µM [inhibitor, single point]
Cc1ccc(CCN2CC(C(=O)NCCN(C)C)CC2=O)cc1 (stereo not drawn) 35.5 µM [inhibitor, single point]
O=C(CCN1C(=O)/C(=C/c2ccco2)SC1=S)Nc1ccc(C(=O)O)c(O)c1 28.2 µM [inhibitor, partial curve, poor fit]
COc1ccc(C2(C(=O)NCCN3CCOCC3)CCOCC2)cc1 2.82 µM [inhibitor, single point]
CCN(CCNCC(O)COc1ccccc1C(C)C)c1cccc(C)c1 (stereo not drawn) 12.6 µM [inhibitor, single point]
CC(C)c1ccc(NC(=O)CN2C(=O)c3cccc4cccc2c34)cc1 25.1 µM [inhibitor, single point]
COc1ccc(-c2cn(-c3ccc(OC)cc3)c(=S)[nH]2)cc1 35.5 µM [inhibitor, partial curve, poor fit]
COC(=O)Nc1sc2c(c1C(N)=O)CCC(C)C2 (stereo not drawn) 15.8 µM [inhibitor, single point]
Cc1ccc(/C=C2\CCn3c2nc2cc(C(=O)O)ccc2c3=O)c(C)c1 35.5 µM [inhibitor, single point]
N#CC1=C(N)Nc2nc3ccccc3n2C1c1ccc(F)cc1 (stereo not drawn) 12.6 µM [inhibitor, partial curve, poor fit]
Cc1[nH]c2ccccc2c1NC(=O)CN1CCN(C(=O)c2ccco2)CC1 14.1 µM [inhibitor, partial curve]
COc1cc(CNc2ccc3[nH]c(=O)[nH]c3c2)ccc1OCc1c(F)cccc1Cl 14.1 µM [inhibitor, partial curve, poor fit]
COc1ccc(NCc2nc3ccccc3n2CCOc2ccc(C)cc2)cc1 11.2 µM [inhibitor, partial curve]
COCCNC(=O)c1sc2ncn(CC(=O)N3CCCCC3)c(=O)c2c1C 35.5 µM [inhibitor, single point]
CC1CN(c2ccc(NC(=S)NNCCC#N)cc2)CC(C)O1 (stereo not drawn) 12.6 µM [inhibitor, partial curve, poor fit]

Potency, inactive:
COC(=O)c1ccc2c(=O)n(CCCCCC(=O)NC(C)C)c(=O)[nH]c2c1

Potency, active:
O=C(C1CC1)N1CCN(c2ccc(O)cc2)CC1 10 µM
O=C(CCc1nnc2n(Cc3ccc(Cl)cc3)c(=O)c3ccccc3n12)N1CCN(c2ccccn2)CC1 11.2 µM
O=S1(=O)CC(N2CC=CC2)CN1C1CCCCC1 (stereo not drawn) 11.2 µM
COc1cc2c(ccc3cc(OC)c(OC)c(O)c32)cc1O 7.94 µM

Activity change, negative = inhibition, inactive:
COC(=O)c1c(S(C)(=O)=O)nc(-c2ccccc2)[nH]c1=O 2.79%
Cn1c(O)c(/C=N/Nc2ccccc2)c(=O)n(C)c1=O -10.5%
CC(C)CCNC(=O)c1ccc2c(c1)nc1n2CCCCC1 1.73%
COc1ccccc1NC(=O)N(C)C[C@@H]1OCc2cnnn2CCCC(=O)N([C@@H](C)CO)C[C@H]1C -4.04%
Cc1nn(CC(=O)Nc2sc3c(c2C#N)CCC(C(C)(C)C)C3)c(C)c1[N+](=O)[O-] (stereo not drawn) -18.7%
CC(Sc1nnc(NCc2ccccc2)s1)C(=O)Nc1ccc2c(c1)C(=O)c1ccccc1C2=O (stereo not drawn) -2.73%
O=C(CCCCCCCCC#CI)Oc1ccccc1 -8.07%
CN(CC(=O)Nc1ccccc1C(=O)Nc1ccccc1)C1CCCCC1 5.97%
O=C(CNCc1ccccn1)Nc1cc(C(F)(F)F)ccc1N1CCOCC1 -1.34%
O=C1C=C(c2cccc(Cl)c2O)C[C@@H](c2ccc3c(c2)OCO3)C1 26.9%
Cc1cc(NC(=O)Cn2nnc(-c3ccccc3N)n2)no1 1.37%
O=C(CCCn1c(SCC(=O)NCC2CCCO2)nc2ccccc2c1=O)NCc1ccccc1 (stereo not drawn) 9.44%
N=c1sccn1CC(=O)Nc1ccccc1Cc1ccccc1 2.44%
CCc1c(O)cc(=O)n(-c2ccccc2)c1-c1ccccc1 -3.76%
CC/C(=N\NC(=O)CNC(=O)/C=C/c1ccc(OC)cc1)c1ccccc1 0.216%
Cc1ccc(-n2ncc3c(N4CCC(C)CC4)ncnc32)cc1C -0.518%
COC(=O)c1ccc(C)c(NS(=O)(=O)c2ccc(C)c([N+](=O)[O-])c2)c1 -0.763%
CCOCCCNC(=O)C(c1ccc(Cl)cc1)N(Cc1ccc2c(c1)OCO2)C(=O)c1ccccc1O (stereo not drawn) -0.844%
